# Test results as given in publication PMC4336329 (PLoS ONE, 2015).
# The campaign covered roughly 310,000 compounds. About 14,000 (4.5%) showed an effect of 50% or more. Effects have a minus sign here. The list shows a part of the results.
# Target: human ether-à-go-go-related gene (hERG) potassium channel (human, UniProt Q12809)
# Assay: primary screen, population patch clamp on CHO cells stably expressing hERG
# 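Note: peak tail current of the secondary pulse compared with the same well before compound.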
# Chain of human ether-à-go-go-related gene (hERG) potassium channel (Q12809 whole entry, looked up): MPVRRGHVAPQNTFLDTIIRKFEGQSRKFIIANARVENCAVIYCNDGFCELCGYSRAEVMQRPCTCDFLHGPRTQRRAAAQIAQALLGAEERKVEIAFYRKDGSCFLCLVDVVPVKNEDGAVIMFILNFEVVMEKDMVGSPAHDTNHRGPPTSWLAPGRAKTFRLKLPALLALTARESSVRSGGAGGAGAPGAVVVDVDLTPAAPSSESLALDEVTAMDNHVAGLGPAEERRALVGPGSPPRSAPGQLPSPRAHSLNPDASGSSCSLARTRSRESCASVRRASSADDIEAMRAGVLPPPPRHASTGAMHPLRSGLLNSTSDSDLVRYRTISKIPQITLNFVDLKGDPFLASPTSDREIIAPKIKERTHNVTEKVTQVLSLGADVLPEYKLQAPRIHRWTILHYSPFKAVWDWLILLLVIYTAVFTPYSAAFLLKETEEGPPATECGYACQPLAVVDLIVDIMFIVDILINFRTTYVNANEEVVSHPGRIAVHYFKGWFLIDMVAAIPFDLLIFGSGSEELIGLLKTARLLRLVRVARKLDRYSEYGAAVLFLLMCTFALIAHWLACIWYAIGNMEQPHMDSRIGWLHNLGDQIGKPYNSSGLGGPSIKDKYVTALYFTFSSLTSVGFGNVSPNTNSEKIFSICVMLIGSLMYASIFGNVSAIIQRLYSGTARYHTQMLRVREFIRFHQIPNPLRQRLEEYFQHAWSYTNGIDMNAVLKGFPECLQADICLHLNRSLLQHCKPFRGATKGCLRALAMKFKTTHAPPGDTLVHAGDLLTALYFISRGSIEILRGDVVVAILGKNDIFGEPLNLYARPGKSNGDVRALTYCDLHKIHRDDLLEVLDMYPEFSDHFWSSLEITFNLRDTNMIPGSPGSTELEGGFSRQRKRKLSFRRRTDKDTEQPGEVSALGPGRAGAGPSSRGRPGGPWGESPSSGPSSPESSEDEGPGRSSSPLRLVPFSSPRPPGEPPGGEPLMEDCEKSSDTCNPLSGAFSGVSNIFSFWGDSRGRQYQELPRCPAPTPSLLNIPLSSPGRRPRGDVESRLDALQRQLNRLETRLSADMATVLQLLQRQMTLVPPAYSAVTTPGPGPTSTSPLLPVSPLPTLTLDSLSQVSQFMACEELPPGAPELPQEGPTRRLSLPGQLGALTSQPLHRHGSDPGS
row,SMILES,"hERG current change (%, negative = inhibition) at 10uM [%]"
1,Cn1c(C(=O)O)ccc1S(=O)(=O)N(Cc1ccccc1)Cc1ccccc1,16.5
2,Cc1noc(C)c1CSc1nc2ccccc2nc1NS(=O)(=O)c1ccc(Cl)cc1,8.69
3,COc1ccc(C(=O)CSc2nnc3n2CCCN3C(=O)Nc2ccccc2)cc1,-24.8
4,N#CCC(=O)N/N=C/c1ccc(OCC(=O)Nc2ccc(F)cc2)cc1,2.36
5,CN=C(Nc1ccccc1)SC1CC(=O)N(c2ccc(C(=O)OC)cc2)C1=O (stereo not shown),10.6
6,Cc1nn(Cc2ccccc2)c(C)c1NC(=O)c1noc2c1CCc1ccccc1-2,-0.841
7,Cn1c(CN2CCCCC2)c(C#N)c2ccccc21,-25.6
8,Cc1ccccc1N(CC(=O)N1CCN(c2ccccc2)CC1)S(C)(=O)=O,-2.54
9,Cc1ccccc1NC1=NCC(C)S1 (stereo not shown),-2.32
10,C=CCOC(=O)C1=C(C)OC(N)=C(C(=O)OCC)C12C(=O)N(CC(N)=O)c1ccccc12 (stereo not shown),0.469
11,CC(C)c1ccc(NC(=O)CSc2nc3ncccc3[nH]2)cc1,1.46
12,COC(=O)[C@H](C)NC(=O)NCc1ccccc1,1.58
13,CCCNC(=O)COc1cccc(C(=O)NCc2ccccc2)c1,-1.46
14,Nc1ccc2cc(Br)ccc2c1,1.11
15,C=CCN1C(=O)/C(=C2/Sc3ccc(OC)cc3N2C)SC1=Nc1ccc(OC)cc1,12.6
16,O=C(NCCCN1CCOCC1)c1cc(-c2ccc(F)cc2)on1,-19.5
17,Cc1onc(-c2ccccc2Cl)c1C(=O)Nc1ccc(CN2CCCC2)cc1,6.77
18,CN1CC=C2C(C#N)=C(N)C(C#N)(C#N)C(Cc3ccccc3)C2C1 (stereo not shown),-6.19
19,CCOC(=O)C1(C)C=C(Nc2ccc(OCC)cc2)C(=O)N1c1ccccc1 (stereo not shown),23.6
20,CC(NS(=O)(=O)c1ccc(CCC(=O)NCc2cccnc2)cc1)c1ccccc1 (stereo not shown),-1.35
21,CC1CCC(C(C)C)C(OC(=O)Cn2c(-c3ccc(Cl)cc3)[n+](C)c3ccccc32)C1.[Cl-] (stereo not shown),-82.9
22,COc1ccc(S(=O)(=O)N(C)CC(=O)Nc2cccc(C(C)=O)c2)cc1C,-26.4

row,SMILES,"hERG current change (%, negative = inhibition) at 10uM [%]"
1,COc1ccc(N2C(=O)CC(Sc3n[nH]c(-c4ccc(C)cc4)n3)C2=O)cc1 (stereo not shown),-4.46
2,Cc1cc(=O)[nH]c(=O)n1Cc1ccccc1,5.55
3,O=C(Cc1ccccc1[N+](=O)[O-])NCc1ccco1,8.1
4,COc1ccc(C(=O)Nc2ccccc2C(=O)NCc2ccco2)cc1OC,-7.91
5,Cc1ccc(S(=O)(=O)N2CCN(C(=O)N3CCCC3)CC2)cc1,1.88
6,Cc1cc(=O)oc2c(C)c(OC(C)C(=O)NC(Cc3c[nH]c4ccc(O)cc34)C(=O)O)ccc12 (stereo not shown),13.8
7,CCN(c1ccccc1)S(=O)(=O)c1ccc(OC)c(NC(=O)CN(C)C)c1.O=C(O)C(=O)O,-5.1
8,O=C(OCC(=O)N1CCOCC1)c1ccccc1OCc1ccccc1,-1.44
9,COc1ccc(C(CNC(=O)c2oc3c(Cl)cccc3c2C)N2CCCC2)cc1 (stereo not shown),-50.9
10,O=[N+]([O-])c1ccccc1-c1cc(-c2cc(Cl)ccc2O)n[nH]1,-2.62
11,Cc1ccc2c(c1)C1CN(C)CCC1N2C(=S)NC(=O)c1ccc(Br)cc1 (stereo not shown),-67.1
12,COc1cccc(CN(C)C(=O)CN2C(=O)NC3(CCCc4ccccc43)C2=O)c1 (stereo not shown),-8.47
13,CC(=O)Oc1cc2c(cc1Cl)C1(CC(c3ccccc3Cl)O2)CC(C)(C)NC(=S)N1 (stereo not shown),1.38
14,CCOC(=O)c1c(C)[nH]c(C)c1S(=O)(=O)N(C)CC(=O)NCc1ccc(F)cc1,-20.9
15,COc1ccc(NC(=O)c2cc3c(s2)CCC3)cc1S(=O)(=O)N1CCOCC1,-13.3
16,Cc1nonc1C(=O)N/N=C/c1ccc(O)cc1,3.65
17,Cc1cc(=O)[nH]c(SCC(=O)Nc2ccc(F)c([N+](=O)[O-])c2)n1,5.75
18,CN(C(=O)COc1ccccc1)C1CCS(=O)(=O)C1 (stereo not shown),20.9
19,Cn1cc([N+](=O)[O-])c(C(=O)N2CCCCCC2)n1,-12.3
20,O=C(Nc1nc(-c2ccc3c(c2)OCO3)cs1)C1CC1,-5.75
21,O=C(NCCC(=O)N1CCCCCCC1)c1ccc(Cl)cc1,0.252
22,COc1ccccc1N1CCN(C2CCN(C(=O)c3cc(OC)c(OC)c(OC)c3)CC2)CC1,-23.1

row,SMILES,"hERG current change (%, negative = inhibition) at 10uM [%]"
1,O=[N+]([O-])c1nn(-c2ccc3c(c2)OCCO3)n(O)c1=NC1CCCCCC1,-0.515
2,Cc1cc(=O)[nH]c(N/N=C/CCc2ccccc2)n1,8.3
3,N/C(=N\OC(=O)C1CCCCC1)c1ccncc1,14
4,O=S(=O)(O)c1cccc2cccc(Nc3ccccc3)c12,-2.85
5,CCC1C(=O)NCCN1C(=O)c1ccccc1OC1CCN(S(C)(=O)=O)CC1 (stereo not shown),38.1
6,COc1ccccc1NS(=O)(=O)c1cccc(C(=O)NN=C2CCCCCC2)c1,2.09
7,Cc1cccc(OCc2nnc(SCC(=O)N3CCCC3)o2)c1,7.09
8,Cc1nn(CC(=O)Nc2ccc3c(c2)oc2ccccc23)c(=O)c2ccccc12,14.1
9,CSc1nc(O)c(Cc2ccccc2)c(=O)[nH]1,15.6
10,Cc1ccc(C)c(S(=O)(=O)N2CCN(C(C)C(=O)Nc3ccccc3-c3ccccc3)CC2)c1 (stereo not shown),-9.2
11,CN(C1CCCCC1)S(=O)(=O)c1ccc(-n2cnnn2)cc1,-29
12,COc1ccc(C2C(C#N)=C(N)Oc3cc(C)n(Cc4ccco4)c(=O)c32)cc1 (stereo not shown),-9.9
13,CC(=O)N1CCC(Nc2ccc(C)cc2)CC1,-2.08
14,COc1cc(C)nc(NS(=O)(=O)c2ccccc2)n1,7.87
15,Cc1nc(NC(=S)NC(=O)COc2ccccc2Cl)ccc1Br,-3.72
16,COc1cc(-n2c(C)nc3cc(C(=O)NCc4ccco4)ccc32)cc(OC)c1OC,6.39
17,O=C(NCCCCc1ccccc1)C12CN(Cc3ccccc3)CC1C(c1ccc([N+](=O)[O-])cc1)=NO2 (stereo not shown),5.9
18,O=C(CSc1nc2ccccc2c(=O)n1-c1ccccc1Cl)NCC1CCCO1 (stereo not shown),-5.62
19,CCOc1ccccc1NC(=O)Cn1c(C)cc(COC)c(C#N)c1=O,7.92
20,CC12CCC(C(=O)NNc3ccccc3)(C(=O)C1=O)C2(C)C (stereo not shown),14.6
21,O=S(=O)(NCC1CCCN(Cc2ccccc2)C1)c1cccc2cccnc12 (stereo not shown),-9.85
22,CCCCCCC1C(C#N)=C(N)OC2=C1C(=O)CC(C)(C)C2 (stereo not shown),-0.43

row,SMILES,"hERG current change (%, negative = inhibition) at 10uM [%]"
1,C=CCOc1ccc(C2NC(=O)c3ccccc3O2)cc1 (stereo not shown),10.2
2,C=CCn1c(C)cc(C(=O)COC(=O)c2ccc3c(c2)NC(=O)CS3)c1C,4.69
3,C[n+]1c2n(c3ccccc31)N=C(c1ccc(Cl)cc1)CS2.[Br-],-69
4,COc1c(C(=O)NC(=S)Nc2nnn(C)n2)cc2ccccc2c1Br,2.09
5,CN(C(=O)C1CCN(S(=O)(=O)c2cccs2)CC1)c1ccccc1,-16.9
6,CCc1ccc(N2C(=O)C(Cl)=C(N3CCCCCC3)C2=O)cc1,17
7,CCN1CCN(C(=O)Cn2ncc3ccsc3c2=O)CC1,16.3
8,Cc1ccccc1OCc1nc2ccccc2c(=O)n1NC(=O)c1ccco1,13.8
9,COc1ccc2[nH]cc(C(=O)CN3CCN(C4CCCCC4)CC3)c2c1,-54.8
10,CC(=O)c1ccc(NC(=S)NC(C)c2ccc(Cl)cc2Cl)cc1 (stereo not shown),16.8
11,CCCCN(C)S(=O)(=O)c1ccc(C(=O)Nc2nnc(C3=COCCO3)o2)cc1,0.996
12,CN1CCN(c2nc(-c3ccc(Cl)cc3)cc(=O)[nH]2)CC1,-15.7
13,CC(=O)Nc1ccc(S(=O)(=O)N2CCC(c3nc4c(nnn4Cc4ccccc4Cl)c(=O)[nH]3)CC2)cc1,9.32
14,O=C(NCc1ccccn1)c1cccc(NS(=O)(=O)c2ccccc2F)c1,-0.556
15,COc1ccccc1C(=O)NNC(=S)NC(=O)c1ccco1,21.6
16,O=P(c1ccccc1)(c1ccccc1)C1CCCO1 (stereo not shown),0.551
17,NC(=O)COc1ccc2cc(-c3ccccc3)c(=O)oc2c1,-17.9
18,Cc1ccc(NC(=O)CS(=O)CC(=O)N(CC(=O)NC(C)(C)C)c2cccc(C)c2C)cc1 (stereo not shown),-0.116
19,Cc1cc(C)cc(-n2c(=O)c3ccccc3n(CC(=O)NCC3CCCO3)c2=O)c1 (stereo not shown),9.45
20,COC(=O)c1cc(-c2cccc(OC)c2)c2c(=O)[nH]c(=O)n(C)c2n1,13
21,CSc1nc(N)nc(SCC(=O)OC(C)C)c1C#N,-10.5
22,Cc1cc(=O)c2cc(Br)ccc2n1CC(=O)NCc1ccccc1,-12.8
